Source: PubChem BioAssay AID2060330 (Molecular Pharmacology Branch, DTP, NCI, 2025)
Not every entry of the source has a single result; some have several. The list is limited to them. The source may hold further records. Values given together are repeated measurements (runs, samples, wells, individuals or studies). Additions like (4×) say how often a value occurs here.

Test system: LG0703-F948-PDC spheroids with HUVEC/MSC, viability
Assay: Anticancer human tumor LG0703-F948-PDC patient-derived lung adenocarcinoma cell line growth inhibition [IpAb]
Settings: for viability, T/C: stronger effect = lower value
Excerpt: Combinatorial screen of targeted agents with ipatasertib and abemaciclib in multi-cell type tumor spheroids
A high-throughput screen of multi-cell type tumor spheroids was designed to identify active combinations of targeted small molecules and ipatasertib or abemaciclib. Complex spheroids include a stromal component modeled by human endothelial cells (HUVEC) and fibroblasts modeled by human mesenchymal stem cells (MSCs). The concentration ranges selected for each drug and investigational agent were based upon clinically achievable concentrations if the clinical Cmax of the agent was known.
Compounds. The drugs and investigational agents: ipatasertib (NSC767898), abemaciclib(NSC768073), selumetinib (NSC741078), trametinib (758246), adavosertib (NSC754352), everolimus (NSC733504), sapanisertib (NSC764658), vemurafenib (NSC761431), venetoclax (NSC766270), copanlisib (NSC809693), apelisib (NSC765974), palbociblib (NSC758247), vemurafenib (NSC761431), dabrafenib (NSC764134), ravoxertinib (NSC781343), BMS-387032 (NSC767048), sotorasib (NSC818433), talazoparib (NSC767125) and afursertib (NSC778305), were obtained from the National Cancer Institute (NCI) Developmental Therapeutics Program Chemical Repository. The FDA-approved anticancer drug set is available from the NCI Developmental Therapeutics Program. […] The stock solutions were prepared in dimethyl sulfoxide (DMSO, Sigma-Aldrich, St. Louis, MO, cat. D2650) at 800-fold the tested concentration and stored at -70 degrees C prior to their use. All drugs and investigational agents were tested over a range starting from a high concentration at or near the clinical Cmax and decreasing in half-log increments. If the clinical Cmax for an agent had not been determined, the highest concentration tested was 10 microM.
NCI60 Cell Culture. NCI60 cell lines were obtained from the NCI Developmental Therapeutics Program Tumor Repository. For each lot of cells, the Repository performed Applied Biosystems AmpFLSTR Identifiler testing with PCR amplification to confirm consistency with the published Identifier STR profile for each cell line. Cells were kept in continuous culture for no more than 20 passages. The optimal seeding densities for each of the cell lines at each time point assessed were determined prior to performing the concentration response studies. Briefly, the NCI60 human tumor lines were grown as monolayers in RPMI 1640 medium supplemented with 10% FBS and 2 mmol/L L-glutamine. […]
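Also: spheroids exposed to compounds for seven days before readout.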
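For viability, T/C in this document: T/C percent relative to DMSO vehicle wells set as 100% viability.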

Structure (SMILES) | viability, T/C (compound alone 0.01 µM) | viability, T/C (compound alone 1 µM) | IC50 (compound alone, run of 06/01/2021)
CCN1CCN(Cc2ccc(Nc3ncc(F)c(-c4cc(F)c5nc(C)n(C(C)C)c5c4)n3)nc2)CC1 | 94.3, 94.6, 98.5, 97.8, 108, 97.1 (2×), 96.2, 96.7, 106, 85.4, 98.9, 112% | 90.4, 69.4, 83.6, 78.5 (2×), 97.2, 81.9, 71.9, 72.4, 99.9, 71.5, 86.5, 85.2% | 
CC(C)NCC(C(=O)N1CCN(c2ncnc3c2C(C)CC3O)CC1)c1ccc(Cl)cc1 (centres undefined) |  | 40, 46.6, 65.2, 47.6, 52, 56.3, 54.7, 54.8, 50, 51.9, 50.3, 45.3, 56.4% | 530 nM, 851 nM, 3.78 µM, 850 nM, 1.45 µM, 2.16 µM, 1.53 µM, 1.52 µM, 1.23 µM, 933 nM, 1.8 µM, 748 nM, 2.04 µM
